# Results from the supplement of paper PMC4967469.
# Tests used:
# Test in all cases: Viability of human cancer cell lines after 72 h of drug (GDSC screen)
# QL-XII-47 = compound: C=CC(=O)N1CCc2ccc(-n3c(=O)ccc4cnc5ccc(-c6cnn(C)c6)cc5c43)cc21 [QL-XII-47]; details: top dose 10.24 µM; top dose inferred
# Description: (§1)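 Human cancer cell lines in 384-well plates, medium with 10% serum, drug for 72 h over a 256-fold dose range (nine 2-fold or five 4-fold steps up to the top dose). Adherent lines were fixed and stained with the nucleic acid dye Syto60, suspension lines read with resazurin; signal relative to control wells, capped at 0 and 100%. One two-parameter sigmoid per drug and line, fitted in a mixed model over all curves with the slope shared within a line.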
# KIN001-266 = compound: CCN1CCC(n2cc(CNc3cc(Cl)c4ncc(C#N)c(Nc5ccc(F)c(Cl)c5)c4c3)nn2)CC1 [KIN001-266]; details: top dose 20 µM; top dose inferred
# Description: as §1
# BAY 61-3606 = compound: COc1ccc(-c2cc3nccn3c(Nc3ncccc3C(N)=O)n2)cc1OC [BAY 61-3606]; details: top dose 8 µM; top dose inferred
# Description: as §1
# CCT007093 = compound: O=C1/C(=C/c2cccs2)CC/C1=C\c1cccs1 [CCT007093]; details: top dose 6.6 µM; top dose inferred
# Description: as §1
cell line,measurement,setting,value
"EB2 (Burkitt lymphoma, suspension)",AUC,QL-XII-47,0.388
same,IC50,QL-XII-47,0.325 µM
same,AUC,KIN001-266,0.73
same,IC50,KIN001-266,5.22 µM
same,AUC,BAY 61-3606,0.6
same,IC50,BAY 61-3606,0.914 µM
same,AUC,CCT007093,0.981
same,IC50,CCT007093,> 6.6 µM
"TK (B-cell lymphoma, suspension)",AUC,QL-XII-47,0.758
same,IC50,QL-XII-47,3.26 µM
same,AUC,KIN001-266,0.857
same,IC50,KIN001-266,14 µM
same,AUC,BAY 61-3606,0.824
same,IC50,BAY 61-3606,4.21 µM
same,AUC,CCT007093,0.99
same,IC50,CCT007093,> 6.6 µM
"NB69 (neuroblastoma, adherent)",AUC,QL-XII-47,0.488
same,IC50,QL-XII-47,0.595 µM
same,AUC,KIN001-266,0.877
same,IC50,KIN001-266,16.1 µM
same,AUC,BAY 61-3606,0.918
same,IC50,BAY 61-3606,> 8 µM
same,AUC,CCT007093,0.952
same,IC50,CCT007093,> 6.6 µM
"NCI-H2023 (lung adenocarcinoma, adherent)",AUC,QL-XII-47,0.943
same,IC50,QL-XII-47,> 10.2 µM
same,AUC,KIN001-266,0.926
same,IC50,KIN001-266,> 20 µM
same,AUC,BAY 61-3606,0.981
same,IC50,BAY 61-3606,> 8 µM
same,AUC,CCT007093,0.959
same,IC50,CCT007093,> 6.6 µM
"Hs940-T (melanoma, adherent)",AUC,QL-XII-47,0.604
same,IC50,QL-XII-47,1.31 µM
same,AUC,KIN001-266,0.984
same,IC50,KIN001-266,> 20 µM
same,AUC,BAY 61-3606,0.744
same,IC50,BAY 61-3606,2.97 µM
same,AUC,CCT007093,0.976
same,IC50,CCT007093,> 6.6 µM
"RCM-1 (large intestine, adherent)",AUC,QL-XII-47,0.98
same,IC50,QL-XII-47,> 10.2 µM
same,AUC,KIN001-266,0.98
same,IC50,KIN001-266,> 20 µM
same,AUC,BAY 61-3606,0.879
same,IC50,BAY 61-3606,> 8 µM
same,AUC,CCT007093,0.91
same,IC50,CCT007093,> 6.6 µM
"ALL-SIL (T-cell leukaemia, suspension)",AUC,QL-XII-47,0.535
same,IC50,QL-XII-47,0.787 µM
same,AUC,KIN001-266,0.86
same,IC50,KIN001-266,13.1 µM
same,AUC,BAY 61-3606,0.717
same,IC50,BAY 61-3606,1.85 µM
same,AUC,CCT007093,0.984
same,IC50,CCT007093,> 6.6 µM
"RERF-GC-1B (stomach, adherent)",AUC,QL-XII-47,0.791
same,IC50,QL-XII-47,5.22 µM
same,AUC,KIN001-266,0.697
same,IC50,KIN001-266,4.82 µM
same,AUC,BAY 61-3606,0.915
same,IC50,BAY 61-3606,> 8 µM
same,AUC,CCT007093,0.852
same,IC50,CCT007093,6.08 µM
"ML-2 (acute myeloid leukaemia, suspension)",AUC,QL-XII-47,0.466
same,IC50,QL-XII-47,0.523 µM
same,AUC,KIN001-266,0.92
same,IC50,KIN001-266,> 20 µM
same,AUC,BAY 61-3606,0.893
same,IC50,BAY 61-3606,7.69 µM
same,AUC,CCT007093,0.979
same,IC50,CCT007093,> 6.6 µM
"NCI-H522 (lung adenocarcinoma, adherent)",AUC,QL-XII-47,0.82
same,IC50,QL-XII-47,7.32 µM
same,AUC,KIN001-266,0.862
same,IC50,KIN001-266,> 20 µM
same,AUC,BAY 61-3606,0.875
same,IC50,BAY 61-3606,> 8 µM
same,AUC,CCT007093,0.909
same,IC50,CCT007093,> 6.6 µM
"GCIY (stomach, adherent)",AUC,QL-XII-47,0.972
same,IC50,QL-XII-47,> 10.2 µM
same,AUC,KIN001-266,0.933
same,IC50,KIN001-266,> 20 µM
same,AUC,BAY 61-3606,0.983
same,IC50,BAY 61-3606,> 8 µM
same,AUC,CCT007093,0.931
same,IC50,CCT007093,> 6.6 µM
"PL4 (pancreas, adherent)",AUC,QL-XII-47,0.904
same,IC50,QL-XII-47,> 10.2 µM
same,AUC,KIN001-266,0.913
same,IC50,KIN001-266,> 20 µM
same,AUC,BAY 61-3606,0.954
same,IC50,BAY 61-3606,> 8 µM
same,AUC,CCT007093,0.987
same,IC50,CCT007093,> 6.6 µM
"NCI-H1568 (lung adenocarcinoma, adherent)",AUC,QL-XII-47,0.837
same,IC50,QL-XII-47,9.47 µM
same,AUC,KIN001-266,0.969
same,IC50,KIN001-266,> 20 µM
same,AUC,BAY 61-3606,0.778
same,IC50,BAY 61-3606,4.08 µM
same,AUC,CCT007093,0.939
same,IC50,CCT007093,> 6.6 µM
"NCI-H1734 (lung adenocarcinoma, adherent)",AUC,QL-XII-47,0.773
same,IC50,QL-XII-47,4.39 µM
same,AUC,KIN001-266,0.881
same,IC50,KIN001-266,> 20 µM
same,AUC,BAY 61-3606,0.643
same,IC50,BAY 61-3606,1.3 µM
same,AUC,CCT007093,0.985
same,IC50,CCT007093,> 6.6 µM
"ATN-1 (T-cell lymphoblastic leukaemia, suspension)",AUC,QL-XII-47,0.508
same,IC50,QL-XII-47,0.673 µM
same,AUC,KIN001-266,0.874
same,IC50,KIN001-266,17.3 µM
same,AUC,BAY 61-3606,0.942
same,IC50,BAY 61-3606,> 8 µM
same,AUC,CCT007093,0.972
same,IC50,CCT007093,> 6.6 µM
"KU-19-19 (bladder, adherent)",AUC,QL-XII-47,0.957
same,IC50,QL-XII-47,> 10.2 µM
same,AUC,KIN001-266,0.987
same,IC50,KIN001-266,> 20 µM
same,AUC,BAY 61-3606,0.985
same,IC50,BAY 61-3606,> 8 µM
same,AUC,CCT007093,0.981
same,IC50,CCT007093,> 6.6 µM
"KARPAS-422 (B-cell lymphoma, suspension)",AUC,QL-XII-47,0.898
same,IC50,QL-XII-47,> 10.2 µM
same,AUC,KIN001-266,0.875
same,IC50,KIN001-266,19.3 µM
same,AUC,BAY 61-3606,0.763
same,IC50,BAY 61-3606,2.85 µM
same,AUC,CCT007093,0.985
same,IC50,CCT007093,> 6.6 µM
"WSU-DLCL2 (B-cell lymphoma, suspension)",AUC,QL-XII-47,0.826
same,IC50,QL-XII-47,4.83 µM
same,AUC,KIN001-266,0.887
same,IC50,KIN001-266,15.8 µM
same,AUC,BAY 61-3606,0.993
same,IC50,BAY 61-3606,> 8 µM
same,AUC,CCT007093,0.973
same,IC50,CCT007093,> 6.6 µM
"KGN (ovary, adherent)",AUC,QL-XII-47,0.492
same,IC50,QL-XII-47,0.607 µM
same,AUC,KIN001-266,0.865
same,IC50,KIN001-266,> 20 µM
same,AUC,BAY 61-3606,0.684
same,IC50,BAY 61-3606,1.84 µM
same,AUC,CCT007093,0.95
same,IC50,CCT007093,> 6.6 µM
"8305C (thyroid, adherent)",AUC,QL-XII-47,0.913
same,IC50,QL-XII-47,> 10.2 µM
same,AUC,KIN001-266,0.94
same,IC50,KIN001-266,> 20 µM
same,AUC,BAY 61-3606,0.721
same,IC50,BAY 61-3606,2.6 µM
same,AUC,CCT007093,0.96
same,IC50,CCT007093,> 6.6 µM
"BHT-101 (thyroid, adherent)",AUC,QL-XII-47,0.634
same,IC50,QL-XII-47,1.52 µM
same,AUC,KIN001-266,0.853
same,IC50,KIN001-266,16.4 µM
same,AUC,BAY 61-3606,0.961
same,IC50,BAY 61-3606,> 8 µM
same,AUC,CCT007093,0.984
same,IC50,CCT007093,> 6.6 µM
"HCC202 (breast, adherent)",AUC,QL-XII-47,0.4
same,IC50,QL-XII-47,0.304 µM
same,AUC,KIN001-266,0.867
same,IC50,KIN001-266,> 20 µM
same,AUC,BAY 61-3606,0.818
same,IC50,BAY 61-3606,7.08 µM
same,AUC,CCT007093,0.98
same,IC50,CCT007093,> 6.6 µM
"SU-DHL-6 (B-cell lymphoma, suspension)",AUC,QL-XII-47,0.409
same,IC50,QL-XII-47,0.384 µM
same,AUC,KIN001-266,0.905
same,IC50,KIN001-266,14.4 µM
same,AUC,BAY 61-3606,0.512
same,IC50,BAY 61-3606,0.535 µM
same,AUC,CCT007093,0.995
same,IC50,CCT007093,> 6.6 µM
"CAL-120 (breast, adherent)",AUC,QL-XII-47,0.842
same,IC50,QL-XII-47,> 10.2 µM
same,AUC,KIN001-266,0.878
same,IC50,KIN001-266,> 20 µM
same,AUC,BAY 61-3606,0.861
same,IC50,BAY 61-3606,> 8 µM
same,AUC,CCT007093,0.98
same,IC50,CCT007093,> 6.6 µM
"SK-LMS-1 (soft tissue, adherent)",AUC,QL-XII-47,0.552
same,IC50,QL-XII-47,0.88 µM
same,AUC,KIN001-266,0.88
same,IC50,KIN001-266,19 µM
same,AUC,BAY 61-3606,0.915
same,IC50,BAY 61-3606,> 8 µM
same,AUC,CCT007093,0.96
same,IC50,CCT007093,> 6.6 µM
"A4-Fuk (B-cell lymphoma, suspension)",AUC,QL-XII-47,0.844
same,IC50,QL-XII-47,7.83 µM
same,AUC,KIN001-266,0.93
same,IC50,KIN001-266,> 20 µM
same,AUC,BAY 61-3606,0.712
same,IC50,BAY 61-3606,2.05 µM
same,AUC,CCT007093,0.962
same,IC50,CCT007093,> 6.6 µM

# The IC50 comes from the fitted curve, where viability falls to half of the control; where the fit passes the top or lowest dose, that dose stands as a limit. AUC, from the same fit, is the share of area under the viability curve across the 256-fold dose range: 1 means no effect, lower means more sensitive. An inferred top dose is not printed in the source and was worked back from the curve model.
